About 230 (0.21%) of roughly 110,000 compounds showed an effect of 50% or more. This is one part of the list.
target: DPAP1 (Plasmodium falciparum, UniProt Q8IIJ9); experiment: primary screen, percent inhibition; read by cleavage of a fluorogenic dipeptide substrate; higher = more effect of the substance; set-up: species or system P. falciparum D10 trophozoite lysates; single well
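Further: 30 min substrate incubation versus DMSO and 10 µM JCP410 controls.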

DPAP1, sequence (Q8IIJ9 whole entry, looked up): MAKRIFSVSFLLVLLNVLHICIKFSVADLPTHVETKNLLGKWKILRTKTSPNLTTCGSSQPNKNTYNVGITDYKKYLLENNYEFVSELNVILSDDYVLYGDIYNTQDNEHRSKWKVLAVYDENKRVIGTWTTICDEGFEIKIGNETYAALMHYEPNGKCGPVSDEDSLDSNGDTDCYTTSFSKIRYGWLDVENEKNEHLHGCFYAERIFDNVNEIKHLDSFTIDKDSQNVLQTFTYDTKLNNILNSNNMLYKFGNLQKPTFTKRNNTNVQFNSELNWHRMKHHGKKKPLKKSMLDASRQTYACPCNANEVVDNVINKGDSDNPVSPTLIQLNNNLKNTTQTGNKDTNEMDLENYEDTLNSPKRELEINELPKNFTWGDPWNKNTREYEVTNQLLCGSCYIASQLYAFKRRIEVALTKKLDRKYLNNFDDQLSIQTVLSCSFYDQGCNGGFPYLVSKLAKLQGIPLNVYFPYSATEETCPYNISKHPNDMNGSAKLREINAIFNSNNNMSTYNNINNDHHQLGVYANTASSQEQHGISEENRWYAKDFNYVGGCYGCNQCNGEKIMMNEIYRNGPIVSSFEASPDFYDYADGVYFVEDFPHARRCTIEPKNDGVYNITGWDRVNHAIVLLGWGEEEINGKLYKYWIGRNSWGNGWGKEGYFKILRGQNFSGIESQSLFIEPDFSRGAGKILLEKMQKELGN

SMILES	% Inhibition @ 10 uM [%]
COc1ccccc1N1CCN(CCN2C(=O)C3CCCCN3C2=O)CC1 (centres unmarked)	-7.15
CC(C)CCN1CC(C)C(O)(c2ccccc2)CC1C (centres unmarked)	-1.91
Cc1ccccc1N1C(N)=C(C#N)C(c2ccc3c(c2)OCO3)C2=C1CCCC2=O (centres unmarked)	1.01
COc1ccc(C2(C(=O)Nc3ccccc3C)CCOCC2)cc1OC	-8.95
COc1cc2c(C(=O)N3CCOCC3)c(CSc3ccccc3)n(C)c2cc1Br	3.66
N#CC1=C(N)Oc2c(c(=O)oc3ccccc23)C1c1ccsc1 (centres unmarked)	2.4
O=C1C2C(c3ccccc3)OC3(C(=O)c4ccccc4C3=O)C2C(=O)N1CCc1ccc(F)cc1 (centres unmarked)	0.931
CCCc1c(C)nc2c(-c3ccc(Cl)cc3)c(C)nn2c1O	1.91
CCc1ccc(CNC(=O)CCn2cnc3onc(-c4ccc(F)cc4)c3c2=O)cc1	-1.61
CC1=C(c2ccc(Cl)cc2)S(=O)(=O)N=C1N1CCN(C(=O)c2ccco2)CC1	2.27
CN(C)CCCOC(=O)c1sc2ccccc2c1Cl	-10.2
COc1ccc(C2=N/C(=C/c3cc(OC)c(OC)c(OC)c3)C(=O)O2)cc1Br	2.93
Cn1nc(C(F)(F)C(F)F)cc1-c1ccccc1O	-1.69
c1ccc(CN2CCC(NC3CCCC3)CC2)cc1	4.54
Sc1nnc(-c2ccccc2Cl)n1-c1ccccc1	4.54
COc1ccccc1CNS(=O)(=O)c1ccc(-c2ccc(O)nn2)s1	-1.79
COCCNC(=O)c1ccc2[nH]c(C)c(C)c2c1	-3.76
Fc1ccc(Nc2nc(-c3ccccc3)cs2)cc1	-0.771
O=C(NC(c1ccccc1)c1c(O)ccc2ccccc12)c1ccccc1 (centres unmarked)	-3.98
CCN(CC)CCn1c(NC(=O)c2cccc(F)c2)nc2ccccc21	4.54
Cc1ccc(C)c(OCC(=O)N(Cc2nc(-c3ccc(Cl)cc3)no2)C(C)C)c1	-6.23
Cc1ccc(OCCCCN2CCCC2)cc1C	-0.351
CC(C)=CCCC(C)CN(C)CCN(C)C (centres unmarked)	-2.34
N#CCCOCc1cccc2ccccc12	-1.86
CC(C)c1ccc(NC(=O)Nc2cccc3ccccc23)cc1	1.74
CC(=O)C(Sc1ncnc2sc(C)c(C)c12)C(C)=O	3.54

SMILES	% Inhibition @ 10 uM [%]
O=S(=O)(Nc1ccccc1F)c1cc(Cl)ccc1Cl	2.22
Cc1cc(/C=C2/NC(=O)NC2=O)c(C)n1-c1ccc(C#N)cc1	5.37
Cc1ccc(C(=O)Nc2ccc(-c3cn4ccsc4n3)cc2)cc1	1.37
CC1CCc2c(sc(NC(=O)c3ccncc3)c2C(N)=O)C1 (centres unmarked)	-0.725
CN(C)c1ccc(C2C3=C(O)CC(C)(C)CC3=Nc3nc(S)nc(N)c32)cc1 (centres unmarked)	1.08
Cc1ccccc1CCNC(=O)c1ccc2[nH]c(C)c(C)c2c1	1.44
CCC(=O)NC1=NC(=O)/C(=C/c2cc3c(cc2Br)OCO3)S1	3.99
O=C(Nc1cccc(O)c1)c1cccc(S(=O)(=O)Nc2cccc(O)c2)c1	4.8
O=C1c2ccccc2C(NCCc2ccccc2)N1CCc1ccccc1 (centres unmarked)	-3.74
Cc1ccc2nc(N(CCCN(C)C)C(=O)COc3ccccc3)sc2c1	3.48
COc1cc(C2C(C#N)=C(N)N(c3cccc(C)c3)C3=C2C(=O)CCC3)cc(OC)c1OC (centres unmarked)	0.536
O=C(Cn1ncn2c(cc3cc(F)ccc32)c1=O)NC1CCCc2ccccc21 (centres unmarked)	3.29
Cc1ccc2c(c1)c1c3n2CCN(C(C)c2ccccc2)C3CCC1 (centres unmarked)	3.18
OCC1CCCCN1C1CCc2ccccc2C1 (centres unmarked)	3.19
CCc1ccc(OCC(=O)Nc2ccc(S(=O)(=O)N3CCCC3)cc2)cc1	-0.185
COc1cc2c3c(c1OC)-c1cc(O)ccc1CC3NCC2 (centres unmarked)	-3.13
Cc1ccnc(SC(C(=O)c2ccccc2)c2ccccc2)n1 (centres unmarked)	1.62
CC1(C)CC(=O)C2=C(C1)NC(=O)CC2c1cccc(O)c1 (centres unmarked)	-1.29
O=C(NC(Cc1ccccc1)C(=O)O)/C(=C\c1ccco1)NC(=O)c1ccco1 (centres unmarked)	5.55
O=C1c2cccc3cccc(c23)N1CN1CCN(c2ccccc2F)CC1	-7.18
Cc1cc(NC2CCCCC2)nc(-c2ccc(Br)cc2)n1	-7.93
CCCc1nc(N)c(C#N)c(-c2cccs2)c1CC	2.1
O=C(O)CCC(=O)Nc1ccccc1C(=O)Nc1ccc(F)cc1	-0.95
O=C1/C(=C\c2ccc(-c3ccc(Cl)cc3Cl)o2)Sc2ccccc21	-4.01
CC(=O)c1cccc(NC(=O)CSc2nc(N)cc(N)n2)c1	-2.11
Cc1cc(O)cc2occ(-c3cnn(-c4ccccc4)c3)c(=O)c12	1.67

SMILES	% Inhibition @ 10 uM [%]
CC(=O)OC1(C(=O)/C=C/c2ccccc2)CCCCC1	-2.47
CC(=O)N1N=C(c2ccco2)CC1c1cccs1 (centres unmarked)	0.472
CC(C)(C)c1[nH]nc2c1C(c1ccc(F)cc1)C(C#N)=C(N)O2 (centres unmarked)	6.06
Cc1noc(/C=C/c2cccs2)c1S(=O)(=O)N1CCCC(C(=O)N2CCOCC2)C1 (centres unmarked)	-3.44
COc1cc(C(=O)ON=C2C=C(C)C(=O)C(C)=C2)cc(OC)c1OC	-11.3
CC(C)(C)c1ccc(S(=O)(=O)NCCOCC(F)(F)C(F)F)cc1	-0.703
N#CC1=C(N)Oc2cc(Nc3ccccc3)ccc2C1c1ccncc1 (centres unmarked)	-2.77
CCOc1ccc(CCNc2nc(C)cc(COC)c2C#N)cc1OCC	-0.222
CC(=O)Nc1nonc1-c1nc2ccccc2n1Cc1ccc(C#N)cc1	4.32
COc1ccccc1OCCn1c(CCNC(=O)c2ccco2)nc2ccccc21	0.486
CN1C(=O)/C(=C/c2cc(Br)ccc2OCC(=O)O)S/C1=N/c1cccc(C(=O)O)c1	16.8
CSc1ccc(/C=C/C(=O)O)cc1	-7.98
CCN(CC)CCCNC(=O)c1[nH]c2cc(OC)ccc2c1Sc1ccccc1	0.236
C=CCSc1nc2c(c(=O)n1C1CCOC(C)(C)C1)C1(CCCCC1)Cc1ccccc1-2 (centres unmarked)	-0.267
c1ccc(CN2CCC(N3CCN(c4ncccn4)CC3)CC2)cc1	-3.27
CCOC(=O)c1c(C)c(C(=O)NCc2cccs2)c(C)n1CC	-1.66
COc1ccc2nc(-c3ccccc3)cc(C(=O)NC3CCCCC3)c2c1	-4.43
O=C(NC(c1ccccc1)c1ccccc1)c1ccccc1Cl	0.135
NC(=O)C1CCCN(C2CC(=O)N(c3ccc(Br)cc3)C2=O)C1 (centres unmarked)	-3.9
CCN(CC)CCN(C(=O)c1ccco1)c1nc2c(C)cc(C)cc2s1	4.2
CCOC(=O)c1ccc(-c2ccc(/C=C3\C(=N)N4N=C(N5CCCC5)SC4=NC3=O)o2)cc1	-3.44
COc1ccc(CNC(=O)c2cnn3c2NC(c2cccs2)CC3C(F)(F)F)cc1 (centres unmarked)	-4.4
COc1cc(OC)c(/C=C2/SC(Nc3ccc(C)cc3)=NC2=O)c(OC)c1	1.64
Cc1cccc(C)c1NC(=O)CC(=O)c1ccccc1	2.76
CCOc1cc(C(=O)N2CCN(c3ccc(F)cc3)CC2)cc(OCC)c1OCC	0.812
O=C(NC1CC1)c1ccc(COc2ccc3c(c2)CCC3)o1	6.79

SMILES	% Inhibition @ 10 uM [%]
Cc1ccc(NC(=O)c2ccc([N+](=O)[O-])cc2)c(C)c1	3
Cc1c(-c2c(C#N)c(N)nc3c2CCCCCC3)cnn1C	2.42
Cc1ccc(S(=O)(=O)Nc2ccccc2C(C)(C)C)cc1	4.88
N#CC1=C(N)Oc2cc(O)ccc2C1c1ccccc1Cl (centres unmarked)	-0.197
Cc1cc(Cl)n2nc(C)c(-c3ccc(Cl)cc3)c2n1	6.43
O=C(CSc1nnc(COc2ccccc2)o1)NCc1ccccc1	-4.51
CCN(CC)S(=O)(=O)c1ccc(NC(=O)COc2ccc(Cl)cc2C)cc1	-0.511
O=C1C2CC=C(Cl)CC2C(=O)N1CNc1cc(Cl)ccc1Cl (centres unmarked)	-0.68
COc1ccc(S(=O)(=O)NCC2CCC(C(=O)NCCCN3CCCC3=O)CC2)cc1 (centres unmarked)	2.35
CCc1ccc2oc(-c3cc(N)ccc3O)nc2c1	0.162
CCC(CC)C(=O)/N=C1/SC2CS(=O)(=O)CC2N1Cc1ccccc1Cl (centres unmarked)	-1.15
Cc1ccc2c(c1)c1c(n2CCN2C(=O)c3ccccc3C2=O)C(=O)CCC1	2.66
CCOc1ccc(CC(=O)C2=C(NCc3ccccc3)CC(C)(C)CC2=O)cc1OCC	-2.63
CCCCc1c(O)c2ccccc2n(CCCC)c1=O	7.33
CCC[C@H](NC(=O)[C@@H](NC(=O)c1ccc(-c2ccccc2Cl)c(Cl)c1)C1CCCCC1)C(=O)c1nnc(CC)o1	4.33
COc1cccc(/C=N/n2c(S)nnc2-c2ccccc2)c1	1.13
O=C(CN1C(=O)S/C(=C\C=C\c2ccccc2)C1=O)N1CCCCC1	-6.08
CCc1nnc(N2CCN(c3ncnc4c3oc3ccccc34)CC2)s1	-3.53
C#CCOc1c(/C=C2/SC(=O)NC2=O)cc(Br)cc1OC	-3.04
COc1cccc(NC(=O)c2ccc3c(c2)C(=O)N(C2CCCCC2)C3=O)c1	-12.7
COc1ccc(N2CCN(CC(O)COc3ccc(Cl)cc3)CC2)cc1 (centres unmarked)	2.22
Cc1ccc2ncc(S(=O)(=O)c3ccccc3)c(N3CCC(C)CC3)c2c1	-5.54
CCc1ccc([N+]2=C3SCCCN3C(O)(c3cccs3)C2)cc1 (centres unmarked)	1.91

— PMC6919601, “Identification of Plasmodium dipeptidyl aminopeptidase allosteric inhibitors by high throughput screening” (PLoS ONE, 2019)
